Each structure is given as a SMILES string. Hit rate of the full screen: of about 150,000 compounds, about 540 (0.36%) showed an effect of 50% or more. The list shows a part of the results.

This note sets out measurements from ChEMBL document CHEMBL5308541, “MAIP: An Open-Source Tool to Enrich High-Throughput Screening Output and Identify Novel, Druglike Molecules with Antimalarial Activity” (ACS Med Chem Lett, 2023).

The experiment relates to Plasmodium falciparum. The experiment in a line: Primary screen in NF54 nanoGlo assay, in single point, at 2uM, 72h; a lower Z score goes with more inhibition. Type of experiment: functional, Erythrocyte. Conditions: timepoint 72 hour.
Regarding `Cc1n[nH]c2ncc(NCc3ccc(Oc4cnccn4)cc3)cc12`, the % Inhibition (usually the drop in the measured response relative to a control, in per cent) is on record as -8% and the Z score came out at 1.32.
On the same counts, the results for `O=C(Nc1ccc(N2CCC(NCc3c[nH]nc3-c3ccc(Cl)cc3)CC2)cc1)C1CCCC1` are -3% and 0.56.
For `CCCC(=O)NC1COCC1Cc1ccncc1` (stereo unspecified), the “% Inhibition” value came to 82% and the Z score is on record as -16.24.
Taken in the same sequence, the figures for `CN(C(=O)c1cc(-c2cccnc2)on1)c1cc(-c2ccccc2)[nH]n1` were -5% and 0.78.
In the case of `COCCN(Cc1ccncc1)C(=O)[C@H](C)N1CCN(C)CC1`, the “% Inhibition” value is recorded as -15% and the Z score came to 2.64.
Consider `CCN(CCNc1nccc(-c2ccccn2)n1)c1cccc(C)c1`, for which the “% Inhibition” value was found to be 4% and the Z score is listed as -0.7.
Taken in the same sequence, the figures for `CC(C)c1cc(NC[C@H]2CCCCCN2)nc(N)n1` were 5% and -1.02.
In the case of `Fc1ccc(C(CCCN2CCN3CCCC[C@H]3C2)c2ccc(F)cc2)cc1`, the “% Inhibition” value is on record as -19% and the Z score stood at 3.4.
For the compound `COCc1cc(OCC2(CC#N)CC2)c2cc(F)ccc2n1`, the “% Inhibition” value is recorded as -1% and the Z score was 0.2.
Turning to `COc1ccc2c(c1)C=C(CN1CC[C@H](Cc3cccc(CO)c3)C1)CO2`, the “% Inhibition” value was -1% and the Z score came to 0.24.
On the same counts, the results for `Cc1nnc(NCC2CCN(C3CCN(C)CC3)CC2)s1` are -8% and 1.18.
On the same counts, the results for `O=c1c2c(Cl)cccc2ncn1CC1CCNCC1O` (stereo unspecified) are -1% and 0.22.
As to `CC1CCN(CCc2cccc(NC(=O)c3ccccc3-c3cncnc3)c2)CC1`, the “% Inhibition” value is -3% and the Z score was 0.58.
Taken in the same sequence, the figures for `Cc1cc(NCCS(C)(=O)=O)c2c(C)noc2n1` were -1% and 0.11.
`COc1cc(-c2onc(N(C)C)c2C(=O)N2CC[C@H](N3CCN(C)CC3)C2)ccc1F`: the “% Inhibition” value was -8% and the Z score was 1.68.
`OCC1CCN(c2ncccc2NCc2cccc3[nH]ccc23)CC1`: the “% Inhibition” value is reported as -2% and the Z score stood at 0.38.
Taken in the same sequence, the figures for `O=C(NCc1cc2ccc(F)cc2[nH]c1=O)[C@@H]1CC2(CCNCC2)CN1` were -2% and 0.38.
In the case of `Fc1ccccc1N1CC[C@H](CNc2nccc(-c3ccncc3)n2)C1`, the “% Inhibition” value is -4% and the Z score is reported as 0.71.
On to `O=C(Nc1cccc2cn[nH]c12)N1CCN(CCN2CCOCC2)CC1`, for which the “% Inhibition” value is -1% and the Z score turned out to be 0.24.
Taken in the same sequence, the figures for `O=C(NCCN1CCNCC1)c1cccc(-c2cnc3ccccc3n2)c1` were 5% and -0.9.
Turning to `c1cc2c(NCc3ccc(-c4ccoc4)cc3)ncnc2cn1`, the “% Inhibition” value is listed as 2% and the Z score is listed as -0.31.
Taken in the same sequence, the figures for `COc1cncc(-c2cccc(C(=O)N[C@@H]3C[C@@H](CO)N(C)C3)c2)c1` were 6% and -0.99.
Taken in the same sequence, the figures for `CCN(Cc1nc(C(C)C)no1)C(=O)Cc1nc2[nH]c3c(c(=O)n2n1)CCCC3` were -13% and 2.71.
With `Nc1nccc(N2CCC(CNC(=O)c3ccc(-n4ccnc4)cc3)CC2)n1`, the “% Inhibition” value is reported as -5% and the Z score turned out to be 0.91.
On the same counts, the results for `C[C@@H]1[C@H](N2CCOCC2)CCN1Cc1ccc(Cl)c2cccnc12` are -2% and 0.25.
Taken in the same sequence, the figures for `CC(C(=O)Nc1ccc2ccccc2c1)N1CCCC(CN2CCN(C)CC2)C1` (stereo unspecified) were 2% and -0.43.
Regarding `CCCOC(=O)C(C)(C)NC(=O)OC`, the “% Inhibition” value turned out to be 6% and the Z score is on record as -1.22.
On the same counts, the results for `COc1cccc2[nH]cc(CC(=O)Nc3cc(N4CCN(C)CC4)ccn3)c12` are -2% and 0.37.
With `Cc1nc(N2CCCC(NC(C)C)C2)cc(N2CCCC(NC(C)C)C2)n1` (stereo unspecified), the “% Inhibition” value is recorded as 3% and the Z score is reported as -0.53.
On the same counts, the results for `CN1CCN(C(=O)CCNC(=O)c2ccc(F)cc2)C2(CCCCC2)C1` are -5% and 0.73.
On the same counts, the results for `Cc1cc(C#N)ccc1NC1CCC(OC(=O)[C@@H]2CCCN2C(=O)C(F)(F)F)CC1` (stereo partly specified) are -3% and 0.52.
Taken in the same sequence, the figures for `OC1CCN(c2ccnc(NCC[C@H](c3ccc(F)cc3)c3ccco3)n2)CC1` were -1% and 0.14.
On to `CN1CCCN(C(=O)c2ccc(-c3ccc(N)nc3)cc2)CC12CCNCC2`, for which the “% Inhibition” value was -7% and the Z score turned out to be 1.07.
Taken in the same sequence, the figures for `Clc1ccc2cc(CNCCCN3CCOCC3)c(OCCOc3ccccc3)nc2c1` were -13% and 2.31.
On the same counts, the results for `Cc1cc2cc(C(=O)N(C)Cc3c(C)nc4ccccn34)ccc2o1` are -12% and 2.03.
On the same counts, the results for `Fc1cnc(NCCOc2cccc3cccnc23)nc1N1CCOCC1` are -13% and 2.73.
Regarding `Cc1nccn1-c1cncc(NC[C@H](C)CN2CCCC2)n1`, the “% Inhibition” value is listed as -5% and the Z score is 1.14.
Taken in the same sequence, the figures for `OC1CCN(CCCNCc2cc3ccccc3nc2N2CCCCC2)CC1` were 8% and -1.45.
Turning to `COCC(C)(C)N(Cc1ccccc1)C(=O)CCCNC(=O)OC`, the “% Inhibition” value is on record as -1% and the Z score was 0.22.
Turning to `CC(C)COc1cccc(CN2CC[C@H](Nc3ncccn3)C2)c1`, the “% Inhibition” value is on record as -8% and the Z score is on record as 1.24.
On the same counts, the results for `Cn1ncc2c(N)nc(N3CC[C@H](Oc4cccc(F)c4)C3)nc21` are 2% and -0.41.
For `Cc1nc2c(c(NCC3CCN(C4CCN(C)CC4)CC3)n1)CCNC2`, the “% Inhibition” value is -10% and the Z score worked out at 1.9.
Taken in the same sequence, the figures for `OCc1cc2c(cc1-c1cnn(C3CCNCC3)c1)OCCO2` were 1% and -0.12.
Taken in the same sequence, the figures for `c1nc(NC[C@H]2CNCCCO2)cc(N2CCCC2)n1` were -7% and 1.16.
Taken in the same sequence, the figures for `CS(=O)(=O)c1ccc(-c2nnc(NCc3cccc(OC4CCCC4)c3)o2)cc1` were -21% and 3.57.
Take `Clc1ccc(N2CC[C@H](Nc3cc(N4CCOCC4)ncn3)C2)cc1`: the “% Inhibition” value was -6% and the Z score is listed as 1.22.
As for `CN(C)Cc1cccc(CCNCc2csc(-c3ccc(C(F)(F)F)cc3)n2)c1`, the “% Inhibition” value is recorded as 51% and the Z score is -11.09.
Taken in the same sequence, the figures for `CCOC(=O)N1CCC(Nc2c(NCCN3CCN(Cc4ccccc4)CC3)c(=O)c2=O)CC1` were -11% and 1.87.
Taken in the same sequence, the figures for `CN1CCN(C2(CNc3ncnc4c3CCNCC4)CCCC2)CC1` were 3% and -0.44.
Taken in the same sequence, the figures for `CC(C(=O)Nc1cccc(F)c1)N1CCN(CC2CCCN(C(=O)OC(C)(C)C)C2)CC1` (stereo unspecified) were -7% and 1.41.
For the compound `CCN1CCN(C(=O)C2CCN(c3nc4ccc(-c5ccsc5)nc4s3)CC2)CC1`, the “% Inhibition” value is listed as -2% and the Z score was 0.4.
Taken in the same sequence, the figures for `Cn1cc([C@H]2[C@H](CNc3nc(N)c4ccccc4n3)CC(=O)N2C(C)(C)C)cn1` were -9% and 2.02.
On the same counts, the results for `Cc1nsc(NCC(C)(C)NC(=O)OC(C)(C)C)n1` are -7% and 1.37.
Taken in the same sequence, the figures for `Cc1cccc(-c2[nH]ncc2CN[C@H]2CCCN(c3cc(N4CCOCC4)ncn3)C2)c1` were -1% and 0.09.
As for `CC(C)/C=C1/CCCc2c1nc1ccccc1c2O`, the “% Inhibition” value was 0% and the Z score was 0.04.
On the same counts, the results for `CC1(C)CC(NCc2cc(O)c3cc(C(N)=O)ccc3n2)CC(C)(C)N1` are -2% and 0.3.
Taken in the same sequence, the figures for `NC(=O)CNC(=O)c1ccc2c(c1)NC(=O)NC2` were -6% and 1.32.
On the same counts, the results for `C[C@H]1CCCCN1C1CN(C(=O)c2cnc(Nc3ccccc3)nc2)C1` are -1% and 0.21.
As to `Cc1ccc2c(-c3ccccc3CN3CCNCC3)cccc2n1`, the “% Inhibition” value is on record as 36% and the Z score is given as -7.14.
On the same counts, the results for `CC1CCC2c3c(c4ccccc4n3Cc3ccccc3)CCN2C1` (stereo unspecified) are -10% and 1.64.
`COc1ccc(N(C)S(=O)(=O)CC2CN(S(C)(=O)=O)C2)cn1`: the “% Inhibition” value is 1% and the Z score is listed as -0.22.
On the same counts, the results for `CN1CCN(Cc2ccc(C(=O)N3CCC(N4CCC(O)CC4)CC3)o2)CC1` are -13% and 2.26.
On the same counts, the results for `N[C@H]1CCCN(Cc2ccc(OCCN3CCOCC3)cc2)CC1` are 2% and -0.32.
Taken in the same sequence, the figures for `Cc1cc(C)n(-c2ccc(CCC(=O)N3CCN(c4nsc5ccccc45)CC3)cc2)n1` were 3% and -0.58.
As for `CN1CCCN(CC(=O)N2CCC(Oc3ccncc3)CC2)CC1`, the “% Inhibition” value was -2% and the Z score was found to be 0.39.
On the same counts, the results for `OC1(CCNc2ncnc3[nH]ncc23)CCN(c2ccccc2)CC1` are -10% and 2.07.
Taken in the same sequence, the figures for `Cc1noc(-c2ccnc(NC[C@H]3CCN(CC(F)(F)F)C3)c2)n1` were 2% and -0.25.
On the same counts, the results for `CCc1nc2n(n1)CC(NC(=O)N1CCOC(C)(CC)C1)CC2` (stereo unspecified) are -2% and 0.48.
As for `CN1CCC(N2CCC(CN(CCCn3cccn3)Cc3ccncc3)CC2)CC1`, the “% Inhibition” value is -6% and the Z score was 0.97.
On the same counts, the results for `CCc1ccc2ncnc(NCCCN3CCN(CCO)CC3)c2c1` are 65% and -12.99.
Taken in the same sequence, the figures for `Cc1[nH]c2c(F)cc(F)cc2c1CCNc1cc([C@H]2C[C@@H](N)C2)nc(N)n1` were 18% and -3.29.
As for `O=C(Nc1nn[nH]n1)c1cnc2ccc(OC(F)(F)F)cc2c1O`, the “% Inhibition” value is reported as -1% and the Z score is reported as 0.26.
On the same counts, the results for `CCc1nc2c(N(C)Cc3cccc4ncccc34)ncnc2o1` are -10% and 1.66.
Taken in the same sequence, the figures for `COc1ccccc1-c1nc2cc(Cl)ccc2cc1CN1CCC[C@@H]1CO` were -1% and 0.26.
On the same counts, the results for `C[C@@H](c1nc(-c2cccs2)no1)N1CCN(Cc2ccc3c[nH]nc3c2)CC1` are 1% and -0.21.
Take `CCN1CCN(C[C@@H](C)CNc2c(C#N)cnc3ccccc23)CC1`: the “% Inhibition” value is reported as 6% and the Z score is recorded as -1.22.
Take `O[C@H]1CCCN(c2ccnc(NCc3c[nH]nc3-c3cccs3)n2)C1`: the “% Inhibition” value is 7% and the Z score is on record as -1.02.
On the same counts, the results for `O=C(NCc1ccc(OCCN2CCCC2)cc1)c1ccncc1F` are -6% and 1.05.
Taken in the same sequence, the figures for `Cn1cncc1[C@@H]1CNC[C@H]1CNC(=O)c1ccccc1NC1CCCCC1` were 75% and -14.83.
Take `C[C@@H](C(=O)Nc1ccc2[nH]c(-c3ccco3)nc2c1)S(C)(=O)=O`: the “% Inhibition” value is recorded as -6% and the Z score is listed as 1.16.
Taken in the same sequence, the figures for `Nc1cc(N2CCC(N3CCc4ccccc4C3)CC2)nc(N2CCOCC2)n1` were 5% and -0.91.
On the same counts, the results for `Clc1cc(Nc2c3ccccc3nc3ccccc23)ccc1Oc1ccc2ccccc2c1Cl` are -10% and 1.68.
Taken in the same sequence, the figures for `CN1CCN(C2(CNCc3cn(C)nc3-c3ccccc3F)CCCCC2)CC1` were 8% and -1.63.
